Reference: the supplement of paper PMC7826260
This is one part of the list. The data describe in vitro nicking of single-stranded DNA by Rep domains for 1 h at 37 °C with 3 µM enzyme; only the middle of the 90-letter strands is printed. Values are log2 of uncut reads against the no-enzyme pool; uncut sequences lie near 0, cut ones below; no hit call is given. Shares of all reads are compared; where an enzyme cuts many sequences, the uncut ones exceed 0.

Tested on: T1, Rep nickase domain of tomato golden mosaic virus
T1 sequence (residues 1-124 of Rep, tag left off): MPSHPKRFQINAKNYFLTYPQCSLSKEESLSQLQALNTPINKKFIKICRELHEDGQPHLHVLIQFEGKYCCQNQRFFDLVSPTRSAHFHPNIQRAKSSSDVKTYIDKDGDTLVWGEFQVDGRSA
Assay: uncleaved DNA left, log2 of reads against the no-enzyme library (log2 ratio); higher = less cleavage (more negative = more Rep cleavage of the k-mer); sequences stand for … in CTCGTCCG…ACCGGAGA
Experimental: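 A pool of 90-nt single-stranded DNAs with seven random bases just before the constant AC of the nick site (name = the seven bases) was cut by 3 µM recombinant His6-SUMO-tagged Rep nickase domain (300 nM DNA, 50 mM HEPES pH 8.0, 50 mM NaCl, 1 mM MnCl2, 1 h, 37 °C, three replicates). Uncut DNA was amplified and sequenced.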

| Sequence | uncleaved DNA left (log2) |
| --- | --- |
| CAGTGAG | -0.355 |
| AAAAGCG | 0.0732 |
| ACCAACT | -0.101 |
| TCATCTT | -0.195 |
| TCTAGGC | -0.0182 |
| TCTGTGT | -0.0427 |
| CTTAGAA | 0.138 |
| GTCAGGG | 0.25 |
| TTTTATA | 0.0298 |
| CGAAGAG | 0.0956 |
| TACCAGA | 0.0982 |
| TTCCCCC | -0.265 |
| GCACGTG | -0.0103 |
| ACCCCCG | -0.111 |
| CAGCCCC | 0.0123 |
| GCGAGCG | 0.0313 |
| GGATCAA | 0.0202 |
| GTTGCGA | 0.0185 |
| CCCTCCA | 0.0848 |
| TGACTGC | -0.0819 |

| Sequence | uncleaved DNA left (log2) |
| --- | --- |
| ACGCCGT | -0.00213 |
| CCACCCA | -0.102 |
| CATCTGT | -0.0658 |
| TTCACCT | -0.0746 |
| GGAGCAG | -0.00474 |
| TAGCCAC | -0.115 |
| CACGACT | -0.0368 |
| GCTACGC | -0.0615 |
| TGAATCG | -0.195 |
| AATATTT | -0.165 |
| CATATTC | 0.108 |
| TGTGATA | 0.0637 |
| GCGGAAT | 0.0435 |
| ACATCGA | -0.0296 |
| GTTGAAC | -0.00443 |
| ATACTAG | -0.0726 |
| CAGAGGC | 0.104 |
| GCCTAGC | -0.231 |
| ATCGTAT | 0.0458 |
| AATTTCG | 0.0312 |
